The target of this test is GTPase KRas (Homo sapiens) (UniProt P01116). Briefly: Covalent labelling of cysteine mutants by fragments, read by mass spectrometry (AID 2202238). Also on record: protein at 5 µM with 500 µM competing thiol for 1.5 h. Conditions: KRAS G12D cysteine mutants, disulfide tethering, MALDI-TOF labeling, stronger effect = higher value, fragment at 500 µM.
[1] abbreviates: measured here: G75C mutant labeling.
The mark [2] stands for this setting: measured here: H94C mutant labeling.
[3] abbreviates: measured here: I36C mutant labeling.
Setting [4] is: measured here: L120C mutant labeling.
Where [5] appears, read: measured here: M67C mutant labeling.
The mark [6] stands for this setting: measured here: M72C mutant labeling.
[7] abbreviates: measured here: N86C mutant labeling.
Where [8] appears, read: measured here: P121C mutant labeling.
Setting [9] is: measured here: S122C mutant labeling.
Where [10] appears, read: measured here: S136C mutant labeling.
The mark [11] stands for this setting: measured here: G60C mutant labeling.
Where [12] appears, read: measured here: N26C mutant labeling.

The results in this text go back to PubChem BioAssay AID2202238 (Ras Initiative Chemistry Research Team, Frederick National …, 2025).

Some of the results follow. The main result of the screen is listed elsewhere. These columns were measured beside it and carry no call.

UniProt P01116, sequence (P01116 whole entry, looked up, the tested form may be a part): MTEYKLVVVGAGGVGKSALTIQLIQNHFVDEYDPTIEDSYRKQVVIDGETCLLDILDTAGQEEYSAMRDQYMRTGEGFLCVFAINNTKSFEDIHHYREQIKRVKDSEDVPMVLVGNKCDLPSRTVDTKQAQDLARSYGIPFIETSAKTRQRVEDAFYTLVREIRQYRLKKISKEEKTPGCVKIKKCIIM

As for `O=C1NCCN(C(=O)CCS)C1c1ccccc1` (centres undefined), the percent labeling runs as follows: under setting [1], 14.6%; under setting [2], 36.1%; under setting [3], 34.2%; under setting [4], 34.2%; under setting [5], 52.9%; under setting [6], 31.2%. Further, the percent labeling came out at 31.5% under setting [7], 32.7% under setting [8], 36.8% under setting [9] and 66.8% under setting [10].
`Cc1ccc(CN(C)C)cc1NC(=O)CCS`: the percent labeling under setting [1] worked out at 15.6%; the percent labeling under setting [2] was found to be 42.7%; the percent labeling under setting [3] was 55.7%; the percent labeling under setting [4] worked out at 24.8%; the percent labeling under setting [5] turned out to be 44.9%; the percent labeling under setting [6] was 33.7%. The percent labeling was found to be 32.7% under setting [7], 30.6% under setting [8], 28.2% under setting [9] and 54.8% under setting [10].
Turning to `O=C(NCCS)c1cn(CCO)c(=O)[nH]c1=O`, the percent labeling under setting [11] is 29.9%; the percent labeling under setting [1] was 17.3%; the percent labeling under setting [2] amounted to 31.9%; the percent labeling under setting [3] is 25.2%; the percent labeling under setting [4] stood at 40.9%; the percent labeling under setting [5] amounted to 35.9%. For the same compound, the percent labeling reads like this: under setting [6], 24.3%; under setting [12], 44.2%; under setting [7], 25.5%; under setting [8], 32.4%; under setting [9], 40.2%; under setting [10], 41%.
Regarding `O=C(NCCS)c1cccn1Cc1ccccc1Cl`, the percent labeling came to 25.6% under setting [11]; 11.7% under setting [1]; 13.4% under setting [2]; 9.3% under setting [3]; 15% under setting [4]; 12.2% under setting [5]. In addition, the percent labeling under setting [6] turned out to be 34.5%; the percent labeling under setting [12] was found to be 24.9%; the percent labeling under setting [7] turned out to be 7.1%; the percent labeling under setting [8] worked out at 12.3%; the percent labeling under setting [9] came out at 9.9%; the percent labeling under setting [10] stood at 17.1%.
`COc1ccc(OCCN2CCN(C(=O)CCS)CC2)cc1`: the percent labeling worked out at 14.8% under setting [1]; 31.5% under setting [2]; 33.4% under setting [3]; 25.5% under setting [4]; 38.7% under setting [5]; 22.7% under setting [6]. Moreover, the percent labeling reads like this: under setting [7], 31.3%; under setting [8], 30.7%; under setting [9], 27.8%; under setting [10], 50.8%.
As to `Cc1cc(Br)ccc1NC(=O)CNC(=O)CCS`, the percent labeling amounted to 11.7% under setting [1]; 23.5% under setting [2]; 23.1% under setting [3]; 20.7% under setting [4]; 18.5% under setting [5]; 24.6% under setting [6]. The percent labeling is, setting by setting: under setting [7], 19.3%; under setting [8], 21%; under setting [9], 14.6%; under setting [10], 29.5%.
Take `O=C(NCCS)C1CCC2(CC1)COCCO2` (centres undefined): the percent labeling is 24.3% under setting [11]; 9.2% under setting [1]; 28.2% under setting [2]; 17.1% under setting [3]; 39% under setting [4]; 27.8% under setting [5]. For the same compound, the percent labeling reads like this: under setting [6], 13.6%; under setting [12], 33.3%; under setting [7], 27.1%; under setting [8], 30.8%; under setting [9], 29.9%; under setting [10], 39.1%.
For `O=C(NCCS)c1cccn1-c1c(Cl)cccc1Cl`, the percent labeling amounted to 53.2% under setting [11]; 20.7% under setting [1]; 29.1% under setting [2]; 11.3% under setting [3]; 20.6% under setting [4]; 11.9% under setting [5]. Besides, the percent labeling was 42.2% under setting [6]; 26% under setting [12]; 15.4% under setting [7]; 16.7% under setting [8]; 9.7% under setting [9]; 18.7% under setting [10].
For the compound `CCn1ccnc1C1CCCCN1C(=O)CCS` (centres undefined), the percent labeling is 14.3% under setting [1]; 37.7% under setting [2]; 39.3% under setting [3]; 26.1% under setting [4]; 46.2% under setting [5]; 18.7% under setting [6]. For the same compound, the percent labeling is, setting by setting: under setting [7], 23.4%; under setting [8], 28.3%; under setting [9], 39.1%; under setting [10], 59.3%.
Regarding `O=C(NCCS)c1ccc(Br)cc1-n1cnnn1`, the percent labeling was found to be 37.2% under setting [11]; 11.9% under setting [1]; 21.7% under setting [2]; 16.4% under setting [3]; 18.8% under setting [4]; 21.4% under setting [5]. In addition, the percent labeling runs as follows: under setting [6], 21.6%; under setting [12], 25.5%; under setting [7], 20.9%; under setting [8], 42.7%; under setting [9], 13.7%; under setting [10], 26.8%.
In the case of `O=C(CCS)NC1CCN(Cc2c[nH]c3ncccc23)CC1`, the percent labeling amounted to 7.3% under setting [1]; 28.9% under setting [2]; 43.9% under setting [3]; 18.9% under setting [4]; 49.1% under setting [5]; 13.1% under setting [6]. The percent labeling reads like this: under setting [7], 11.8%; under setting [8], 19%; under setting [9], 15.5%; under setting [10], 38.6%.
As for `CN(Cc1ccco1)C(=O)NCC(=O)NCCS`, the percent labeling amounted to 21.3% under setting [11]; 7.1% under setting [1]; 24% under setting [2]; 17% under setting [3]; 37.5% under setting [4]; 21.8% under setting [5]. Further, the percent labeling came out at 10.3% under setting [6]; 26% under setting [12]; 18.7% under setting [7]; 24.6% under setting [8]; 24.3% under setting [9]; 32.1% under setting [10].
Regarding `O=C(CCS)N1CCN(Cc2cc3ccccc3o2)CC1`, the percent labeling was found to be 24.4% under setting [1]; 34.2% under setting [2]; 65.6% under setting [3]; 27.5% under setting [4]; 71.5% under setting [5]; 32.8% under setting [6]. The percent labeling worked out at 23.1% under setting [7], 32.5% under setting [8], 28.8% under setting [9] and 55.8% under setting [10].
As for `Cc1nn(C)c2nc(-c3ccccc3)cc(C(=O)NCCS)c12`, the percent labeling is 25.2% under setting [11]; 12.6% under setting [1]; 11.8% under setting [2]; 9% under setting [3]; 9.1% under setting [4]; 13.8% under setting [5]. The same compound gave a percent labeling under setting [6] of 33.2%; a percent labeling under setting [12] of 38.3%; a percent labeling under setting [7] of 10.1%; a percent labeling under setting [8] of 8.6%; a percent labeling under setting [9] of 0%; a percent labeling under setting [10] of 24.6%.
On to `O=C(CCS)N1CCOCC1c1ncn(Cc2ccccc2)n1` (centres undefined), for which the percent labeling reads like this: under setting [1], 13.3%; under setting [2], 36%; under setting [3], 33%; under setting [4], 34.6%; under setting [5], 46.5%; under setting [6], 29%. The percent labeling under setting [7] turned out to be 13.8%, the percent labeling under setting [8] was 31.1%, the percent labeling under setting [9] came to 29.8% and the percent labeling under setting [10] was found to be 54.6%.
